# Laboratory results as given in PubChem BioAssay (NCATS).
# Inconclusive results, whose numbers are uncertain, are shown with a selection of clear calls. For some assays here: Potencies of inconclusive entries are left out as doubtful fits. The source made the active and inactive calls. Unless noted, calls follow the shape of the dose curve; as a rule, active = well fitted curve in the direction sought with a large enough effect; inconclusive = small, poorly fitted or top-dose-only effect, or another doubt; inactive = no such curve, though single readings can be large; an effect the other way counts as inactive or inconclusive.
# What was measured:
# [1] = tested on: Nanoluciferase (engineered Oplophorus gracilirostris luciferase); experiment: Primary Nanoluciferase (NLuc) qHTS assay for identification of artifact compounds. (AID 1845222); also: potency is read from the fitted curve at half-maximal effect
# How it was run: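 Diluted conditioned medium from NLuc-expressing S16 cells treated with compounds for 15 min at room temperature, then Nano-Glo substrate added; luminescence read after 5 min. Percent inhibition versus no-enzyme and DMSO controls fitted to 4-parameter Hill equation.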
# [2] = target: Luciferin 4-monooxygenase (Photinus pyralis) (UniProt P08659); experiment: Primary firefly luciferase (FLuc) qHTS assay for identification of artifact compounds. (AID 1845220); also: potency is read from the fitted curve at half-maximal effect; nearly all actives have a fitted effect of over 60% in size
# How it was run: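 D-luciferin and ATP (10 uM each, final) in Tris acetate buffer pH 7.6 were incubated with compounds for 15 min at room temperature. The reaction was started with 10 nM Photinus pyralis luciferase and luminescence read after 5 min. Percent inhibition was fitted to a 4-parameter Hill equation.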
# [3] = NS1 protein of Zika virus - qHTS assay to identify small molecule inhibitors in human HEK 293 cells (AID 1347053); also: potency is read from the fitted curve at half-maximal effect; nearly all actives have a fitted effect of over 55% in size
# How it was run: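 HEK 293; 20 h pre-culture, 37 C/5% CO2; cpd 1 h pre-infection; ZIKV MR766, MOI = 0.5, 24 h, 37 C; TR-FRET NS1 readout (two anti-NS1 Abs); norm. to no-virus vs infected.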
# [4] = qHTS of pediatric cancer cell lines to identify multiple opportunities for drug repurposing: Primary screen for TC32 cells (AID 1347089); also: potency is read from the fitted curve at half-maximal effect; nearly all actives have a fitted effect of over 60% in size
# How it was run: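 TC32 cells, 500-1,000/well in growth medium, compound-treated 48 h at 37 °C; viability from CellTiter-Glo luminescence. Primary screen: MIPE 11-point (0.78 nM–46 µM final), NPC 8-point (0.59 nM–46 µM final); confirmatory at 11-point dilutions.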
# [5] = qHTS of pediatric cancer cell lines to identify multiple opportunities for drug repurposing: Primary screen for BT-37 cells (AID 1347094); also: potency is read from the fitted curve at half-maximal effect
# How it was run: (§1)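 CRCs from 8- or 11-point titrations (lowest final 0.59 nM NPC, 0.78 nM MIPE). Cell viability: CellTiter-Glo after 48 h incubation, 15 min room-temperature development, luminescence imaging.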
# [6] = qHTS of pediatric cancer cell lines to identify multiple opportunities for drug repurposing: Primary screen for MG 63 (6-TG R) cells (AID 1347105); conditions: MG 63 (6-TG R) viability, CellTiter-Glo, 48 h; activity change, negative = cytotoxic: at 46 µM (top of the series) unless noted; also: potency is read from the fitted curve at half-maximal effect; nearly all actives have a fitted effect of over 50% in size
# How it was run: as §1
# [7] = qHTS to identify inhibitors of the type 1 interferon - major histocompatibility complex class I in skeletal muscle: primary screen against the NCATS Pharmaceutical Collection (AID 1347407); conditions: human skeletal muscle cells, IFN-b-induced MHC-I HiBiT luminescence, 24 h; activity change, negative = inhibition: at 45.9 µM (top of the series);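 also: luminescence of HiBiT knocked into endogenous HLA-B as interferon-induced MHC class I level; potency is read from the fitted curve at half-maximal effect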
# How it was run: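 Immortalized human myoblasts (C25cl48) with HiBiT knocked into endogenous HLA-B*08:01 were stimulated with 4.0 ng/ml IFN-beta and treated with compounds ([…] top 46 uM) for 24 hrs at 37 C. HiBiT lytic luminescence read.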
# [8] = qHTS to identify inhibitors of the type 1 interferon - major histocompatibility complex class I in skeletal muscle: primary screen against the NCATS Mechanism Interrogation Plate v5.0 (MIPE) Libary (AID 1347411); conditions: iHSKM cells + IFN-b, HiBiT-tagged MHC-I luminescence, 24 h; activity change, negative = inhibition: at 45.8 µM (top of the series); also: nearly all actives have a fitted effect of over 65% in size; also: potency is read from the fitted curve at half-maximal effect;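 as to activity change, negative = inhibition: plate controls were vehicle for no effect and reference inhibitor for full effect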
# How it was run: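 Luminescence from HiBiT-tagged endogenous HLA-B*08:01 served as the MHC class I read-out. CRISPR-engineered C25cl48 human myoblasts received 4.0 ng/ml IFN-beta plus compound for 24 hrs, with an 11-point, 1:3 series topping at 46 uM final.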
# [9] = A High-Content qHTS Against Drug Library for the Identification of Small Molecules that Inhibit DYT1 Early Onset Primary Dystonia-Associated Cell Pathology (AID 1645839; calls by dose curve; also: potency is read from the fitted curve at half-maximal effect)
# How it was run: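 Flp-In T-REx 293 cells with tetracycline-inducible EGFP-delE hTOR1A (WT EGFP-hTOR1A as reference), 800 cells/well; compound added with tetracycline, 48 h at 37 C. Fixed, permeabilized cells imaged; %pathology (punctate TorsinA) primary, cell count counterscreen.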
# [10] = tested on: MCC-13; experiment: qHTS assay to identify novel small-molecules to repurpose for Merkel cell carcinoma treatment (AID 1296009); conditions: MCC and control cell lines, CellTiter-Glo viability, 72 h; series mostly up to 46 µM; also: nearly all actives have a fitted effect of over 60% in size; also: potency is read from the fitted curve at half-maximal effect; as to activity change, negative = cytotoxicity: % is scaled to controls: 0 for no effect and ±100 for the full control effect
# How it was run: (§2)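 Cells were treated for 72 hr at 37 degree celsius with compounds in 8- or 11-point dose response. Viability was read by CellTiter-Glo luminescence, normalized to no-cell (cytotoxicity) and DMSO controls.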
# [11] = tested on: MCC-26; experiment: as above; conditions: MCC and control cell lines, CellTiter-Glo viability, 72 h; series mostly up to 46 µM
# How it was run: as §2
# [12] = qHTS of pediatric cancer cell lines to identify multiple opportunities for drug repurposing: Primary screen for RD cells (AID 1347104); also: nearly all actives have a fitted effect of over 55% in size; also: potency is read from the fitted curve at half-maximal effect;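 as to activity change, negative = cytotoxic: plate controls were DMSO for no effect and bortezomib for full effect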
# How it was run: as §1
# [13] = qHTS of pediatric cancer cell lines to identify multiple opportunities for drug repurposing: Primary screen for A673 cells (AID 1347092); conditions: A673 Ewing sarcoma viability, CellTiter-Glo ATP luminescence, 48 h; activity change, negative = cytotoxic: at 46 µM (top of the series); also: % is scaled to controls: 0 for no effect and ±100 for the full control effect; nearly all actives have a fitted effect of over 45% in size
# How it was run: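 A673 cells (500-1,000 cells/well) were treated 48 hours at 37 degrees C with compounds at 11-point (0.78 nM to 46 µM) or 8-point (0.59 nM to 46 µM) dilutions. Viability read by CellTiter-Glo luminescence; concentration-response curves fitted.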
# [14] = qHTS of pediatric cancer cell lines to identify multiple opportunities for drug repurposing: Primary screen for NB-EBc1 cells (AID 1347095); also: potency is read from the fitted curve at half-maximal effect
# How it was run: as §1
# [15] = qHTS of pediatric cancer cell lines to identify multiple opportunities for drug repurposing: Primary screen for SK-N-SH cells (AID 1347098); conditions: SK-N-SH viability, CellTiter-Glo luminescence, 48 h; activity change, negative = cytotoxic: at 57 µM (top of the series); also: potency is read from the fitted curve at half-maximal effect; nearly all actives have a fitted effect of over 65% in size
# How it was run: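 Cells (500-1,000/well) rested 5 h, then received compounds for 48 h; metabolically active cells were measured by CellTiter-Glo luminescence. Final concentrations spanned up to 46 µM (MIPE, 11-point) or 0.59 nM-46 µM (NPC, 8-point) in primary screens, 11-point in follow-ups.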
# [16] = qHTS of pediatric cancer cell lines to identify multiple opportunities for drug repurposing: Primary screen for NB1643 cells (AID 1347099); also: potency is read from the fitted curve at half-maximal effect; nearly all actives have a fitted effect of over 50% in size
# How it was run: as §1
# [17] = qHTS of pediatric cancer cell lines to identify multiple opportunities for drug repurposing: Primary screen for LAN-5 cells (AID 1347100); also: potency is read from the fitted curve at half-maximal effect
# How it was run: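 Viability after 48 h compound treatment at 37C, 500-1,000 cells/well, read as ATP luminescence with CellTiter-Glo. Primary screens used 11-point (MIPE, 0.78 nM-46 µM) or 8-point (NPC, 0.59 nM-46 µM) final concentrations; follow-up screens used 11-point dilutions.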
# [18] = qHTS of pediatric cancer cell lines to identify multiple opportunities for drug repurposing: Primary screen for Saos-2 cells (AID 1347097); conditions: Saos-2 viability, CellTiter-Glo ATP luminescence, 48 h; activity change, negative = cytotoxic: at 46 µM (top of the series); also: potency is read from the fitted curve at half-maximal effect; nearly all actives have a fitted effect of over 40% in size
# How it was run: as §1
# [19] = tested on: MKL-1; experiment: qHTS assay to identify novel small-molecules to repurpose for Merkel cell carcinoma treatment (AID 1296009); conditions: MCC and control cell lines, CellTiter-Glo viability, 72 h; activity change, negative = cytotoxicity: at 46 µM (top of the series); also: nearly all actives have a fitted effect of over 60% in size; also: potency is read from the fitted curve at half-maximal effect; as to activity change, negative = cytotoxicity: % is scaled to controls: 0 for no effect and ±100 for the full control effect
# How it was run: as §2
# Tags tell the direction and shape of the fitted curve.
structure (smiles),measurement,setting,value
CC(=O)O[C@H]1[C@H](O)C[C@@]2(C)C(CC[C@]3(C)C2CC=C2C4CC(C)(C)CC[C@]4(C(=O)O)CC[C@]23C)C1(C)C (stereo partly specified),Potency,[1],inactive
Cc1[nH]c(/C=C2\C(=O)Nc3cc(-c4ccccc4)ccc32)c(C)c1CCC(=O)O,Potency,[2],active: 6.01 µM
same,Potency,[1],"inconclusive [inhibitor, partial curve]"
CC(C)n1nc(-c2cc3cc(O)ccc3[nH]2)c2c(N)ncnc21,Potency,[3],"inconclusive [inhibitor, partial curve, poor fit]"
same,Potency,[4],active: 2.1 µM
same,Potency,[5],active: 1.1 µM
same,Potency,[6],active: 1.68 µM
same,Potency,[7],active: 4.7 µM
same,Potency,[8],"inconclusive [inhibitor, full curve]"
same,Potency,[9],"inconclusive [inhibitor, partial curve, poor fit]"
same,Potency,[10],active: 16.8 µM
same,Potency,[11],active: 11.9 µM
O=C1CC2(CCCC2)CC(=O)N1CCNCC1COc2ccccc2O1 (stereo unspecified),Potency,[12],inactive
CC(CSC(=O)c1ccccc1)C(=O)N1C[C@@H](Sc2ccccc2)C[C@H]1C(=O)O (stereo partly specified),Potency,[13],inactive
same,Potency,[10],inactive
CCCCCCCCCCCCCCCCCCNC(=O)OC1CCN(C(=O)OC[C@H](COC(=O)N(Cc2cccc[n+]2CC)C(=O)c2ccccc2OC)OC)CC1,Potency,[3],"inconclusive [inhibitor, single point]"
same,Potency,[4],"inconclusive [cytotoxic, single point]"
same,Potency,[14],"inconclusive [cytotoxic, single point]"
same,Potency,[15],"inconclusive [cytotoxic, single point]"
same,Potency,[16],"inconclusive [cytotoxic, single point]"
same,Potency,[17],"inconclusive [cytotoxic, single point]"
same,Potency,[6],"inconclusive [cytotoxic, single point]"
same,Potency,[7],"inconclusive [inhibitor, partial curve, poor fit]"
same,Potency,[9],"inconclusive [inhibitor, single point]"
same,Potency,[11],"inconclusive [inhibitor, single point]"
Cc1cc2nc3ccc(=[N+](C)C)cc-3sc2cc1N,Potency,[5],active: 17.4 µM
same,Potency,[18],active: 2.99 µM
same,Potency,[17],active: 1.33 µM
same,Potency,[12],active: 4.73 µM
same,Potency,[7],"inconclusive [inhibitor, single point]"
same,Potency,[9],active: 7.08 µM
same,Potency,[11],active: 11.9 µM
same,Potency,[19],active: 0.596 µM
CC(C)c1c(C(=O)Nc2ccccc2)c(-c2ccccc2)c(-c2ccc(F)cc2)n1CC[C@@H](O)C[C@@H](O)CC(=O)O,Potency,[4],"inconclusive [cytotoxic, single point]"
same,Potency,[14],"inconclusive [cytotoxic, partial curve, poor fit]"
same,Potency,[15],active: 12.2 µM
same,Potency,[16],"inconclusive [cytotoxic, single point]"
same,Potency,[11],active: 23.7 µM
same,Potency,[19],active: 3.35 µM
COc1c(C)cnc(Cn2cc(C#CCC(C)(C)O)c3c(Cl)nc(N)nc32)c1C,Potency,[1],inactive
CC1CCC(n2c3cnccc3c3cnc(Nc4ccc5c(n4)CCN(C(=O)CO)C5)nc32)CC1 (stereo unspecified),"activity change, negative = inhibition",[8],inactive: -18.6% [at 8.44 µM]
